Test results from the supplement of paper PMC10126150.
Values marked as one replicate rest on one cluster of the flow cell; about a third of the high ones do not repeat.

System: ATP
Assay: switch fluorescence ratio, 500 uM ATP over buffer (Cy3 cluster intensity, sum of 5 cycles each) (fold (ratio)); higher = stronger signal-on switching upon ATP binding; sequences stand for … in TCGTCGGCAGCGTCAGATGTGTATAAGAGACAGTTTTTTTTTTTTTTTTTTTTTTTTT…TC
Settings: aptamer strand: ATP DNA aptamer (quencher-CACCTGGGGGAGTATTGCGGAGGAAGG + anchor), 100 nM annealed; ATP concentration: 500 uM; one replicate
Procedure, shortened: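 Cy3-labelled switching-strand clusters on a modified Illumina MiSeq flow-cell were annealed to 100 nM quencher-labelled ATP aptamer, imaged in selection buffer, then imaged after 15 min with 500 uM ATP at 22 °C. Five buffer/ATP cycles ran, with NaOH stripping and re-annealing between them. The fluorescence ratio is summed target-cycle over summed buffer-cycle Cy3 intensity per cluster, averaged per switch-domain sequence. Clusters outside 100-1000 RFU were excluded.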
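Further: ATP exposure 15 min at 22 °C before imaging.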

| Sequence | switch fluorescence ratio |
| --- | --- |
| CCTCGTTGAC | 3.76 |
| CCTCTATATA | 2.09 |
| CCTCTCACTC | 3.06 |
| CCTCTGAAAG | 2.4 |
| CCTCTGATCG | 1.34 |
| CCTCTTCGCC | 2.23 |
| CCTGAACTGC | 1.41 |
| CCTGACACTG | 1.06 |
| CCTGACAGGC | 1.02 |
| CCTGACGATG | 2.34 |
| CCTGAGCCAC | 2.49 |
| CCTGAGCTTG | 0.984 |
| CCTGATCTGC | 1.33 |
| CCTGATTACG | 1.08 |
| CCTGCAGTCG | 1.14 |
| CCTGCATCCT | 1.41 |
| CCTGCCCGCG | 1.69 |
| CCTGCCCTGC | 1.16 |
| CCTGCTAGGC | 1.93 |
| CCTGCTTACA | 1.09 |
| CCTGGATGTG | 0.974 |
| CCTGGGCATT | 2.18 |
| CCTGGGGCTC | 1.06 |
| CCTGGTATAT | 1.04 |
| CCTGGTCCTC | 1.04 |

| Sequence | switch fluorescence ratio |
| --- | --- |
| CCTGGTCTTC | 1.02 |
| CCTGTAGACT | 1.06 |
| CCTGTCAACT | 1.04 |
| CCTGTCGATA | 1.16 |
| CCTGTGCATT | 4.48 |
| CCTGTTAGA | 1.01 |
| CCTTAAATTC | 1.44 |
| CCTTAACTGT | 1.01 |
| CCTTAAGGAC | 1.07 |
| CCTTAAGGTA | 0.997 |
| CCTTAAGTTG | 1.04 |
| CCTTAATCCT | 1.14 |
| CCTTAGGCAG | 1.24 |
| CCTTATACAG | 1.02 |
| CCTTATATTG | 0.994 |
| CCTTATTCGT | 0.986 |
| CCTTATTGCC | 1.01 |
| CCTTCACTTC | 1.19 |
| CCTTCATT | 1.04 |
| CCTTCTTACA | 1.07 |
| CCTTCTTAGA | 1.09 |
| CCTTGACAGC | 1.1 |
| CCTTGAGAAG | 1.01 |
| CCTTGATCAC | 1.09 |
| CCTTGCGTGG | 1.06 |

| Sequence | switch fluorescence ratio |
| --- | --- |
| CCTTGGAAAA | 0.989 |
| CCTTGGAGAC | 1.55 |
| CCTTGGAGCC | 1.1 |
| CCTTGGATCA | 0.972 |
| CCTTGGCAGT | 5.75 |
| CCTTGGGCGC | 0.973 |
| CCTTGGGTAA | 1.06 |
| CCTTGGGTCA | 0.996 |
| CCTTGTACGT | 1.05 |
| CCTTGTTTGA | 0.977 |
| CCTTTAGCTC | 2.2 |
| CCTTTATTGT | 1.02 |
| CCTTTCTGAC | 1.3 |
| CCTTTGCGCT | 1.35 |
| CCTTTTTCGG | 1.05 |
| CCTTTTTGTA | 0.997 |
| CGAAACACCC | 1.19 |
| CGAAACGAGA | 0.994 |
| CGAAACTCGG | 1.01 |
| CGAAAGATCA | 1.01 |
| CGAAAGGTAT | 1.02 |
| CGAAATAATC | 1.07 |
| CGAAATACCG | 1.06 |
| CGAAATAGGG | 1.01 |
| CGAAATAGTT | 1.05 |

| Sequence | switch fluorescence ratio |
| --- | --- |
| CGAACGCTAT | 4.24 |
| CGAACTAAGG | 1.04 |
| CGAACTCAGA | 1.03 |
| CGAACTTAAT | 1.05 |
| CGAAGAGGAA | 0.994 |
| CGAAGCACTG | 2.23 |
| CGAAGGATCC | 0.999 |
| CGAAGGGTAG | 0.994 |
| CGAAGTACTA | 1.29 |
| CGAAGTAGAC | 2.41 |
| CGAAGTGACC | 1.13 |
| CGAAGTGATC | 2.59 |
| CGAAGTTG | 1.02 |
| CGAATACTCG | 1.48 |
| CGAATATTGC | 1.09 |
| CGAATCAGG | 1.08 |
| CGAATCCTGG | 1.06 |
| CGAATGCCTT | 1.01 |
| CGAATGTTCC | 1.03 |
| CGAATTGTA | 1.04 |
| CGAATTTCGA | 0.937 |
| CGACAAGAAT | 1.01 |
| CGACAAGGGT | 1.13 |
| CGACACGAAT | 1.03 |
| CGACACTAAG | 1.01 |

| Sequence | switch fluorescence ratio |
| --- | --- |
| CGACACTCTC | 1.14 |
| CGACACTGCA | 1.19 |
| CGACAGCACT | 2.6 |
| CGACATTACA | 1.34 |
| CGACCATG | 0.96 |
| CGACCGAAGT | 1.1 |
| CGACCGGGTT | 1.05 |
| CGACCGTGGT | 1.03 |
| CGACCTATCA | 0.963 |
| CGACCTATTA | 1.04 |
| CGACCTGGTG | 1.45 |
| CGACGATAAG | 1.01 |
| CGACGTGTCC | 1.09 |
| CGACTACGT | 0.973 |
| CGACTAGAAC | 1.07 |
| CGACTCGCAT | 3.3 |
| CGACTTACAC | 1.29 |
| CGACTTGAAT | 1.06 |
| CGAGAAAGGT | 1.1 |
| CGAGAAGCGC | 1.06 |
| CGAGACTGCA | 1.05 |
| CGAGATAGTA | 1 |
| CGAGATGAGA | 1.04 |
| CGAGATGCGC | 0.993 |
| CGAGATTGGC | 0.957 |

| Sequence | switch fluorescence ratio |
| --- | --- |
| CGAGATTTGA | 0.966 |
| CGAGCATCTC | 0.988 |
| CGAGCCTTGA | 0.996 |
| CGAGCGGTGG | 1.06 |
| CGAGCTTGCC | 0.925 |
| CGAGGAATTA | 1.02 |
| CGAGGAGCGG | 1.01 |
| CGAGGATTCT | 0.971 |
| CGAGGCAGGG | 1.31 |
| CGAGGCCGTG | 1.05 |
| CGAGTAAGAT | 1.13 |
| CGAGTCAAAC | 1.34 |
| CGAGTCGCTC | 0.994 |
| CGAGTCTTTC | 1.06 |
| CGAGTCTTTT | 0.996 |
| CGAGTGCAAC | 1.02 |
| CGAGTGCGAA | 1.01 |
| CGAGTGCGGT | 1.04 |
| CGAGTGGGAG | 0.949 |
| CGAGTTACAG | 1.02 |
| CGAGTTGCTA | 1.02 |
| CGAGTTGG | 1.04 |
| CGATAAAAAG | 0.989 |
| CGATAACTTC | 1 |
| CGATAAGGAA | 1.07 |

| Sequence | switch fluorescence ratio |
| --- | --- |
| CGATAATCCC | 1.2 |
| CGATACCCGA | 1.04 |
| CGATAGATCG | 0.981 |
| CGATAGCACT | 1.3 |
| CGATAGCCGA | 1.01 |
| CGATAGGGGA | 1 |
| CGATATATAC | 2.21 |
| CGATCCCGCA | 1.2 |
| CGATCGATCA | 1.01 |
| CGATCGTATG | 0.897 |
| CGATCTTTCA | 1.01 |
| CGATGAACCG | 1.1 |
| CGATGAGCAC | 1.22 |
| CGATGATTTA | 0.971 |
| CGATGCAGCC | 1.8 |
| CGATGCGTGA | 1.02 |
| CGATGCTGAC | 1.79 |
| CGATGGCAGG | 1.07 |
| CGATGGGTCA | 0.94 |
| CGATGTAAGC | 1.38 |
| CGATGTCTCG | 0.98 |
| CGATGTTTCG | 0.979 |
| CGATTCATTA | 0.979 |
| CGATTGCGGT | 1.06 |
| CGATTTATGC | 0.999 |

| Sequence | switch fluorescence ratio |
| --- | --- |
| CGATTTTAAT | 0.988 |
| CGCAACCTCA | 3.29 |
| CGCAACGCGC | 1.05 |
| CGCAATGTGA | 2.93 |
| CGCACAAACA | 1.2 |
| CGCACAATAG | 5.12 |
| CGCACAGGT | 2.68 |
| CGCACGCTA | 1.61 |
| CGCAGACGGG | 1.15 |
| CGCAGACTTA | 1.19 |
| CGCAGATCGC | 1.37 |
| CGCAGCCCCT | 2.89 |
| CGCATGGAAC | 1.82 |
| CGCATTAGAT | 1.08 |
| CGCATTCTCG | 2.55 |
| CGCCAATCTT | 1.05 |
| CGCCCAATCT | 1.98 |
| CGCCCACTC | 1.34 |
| CGCCCAGGGT | 4.51 |
| CGCCCCAAGG | 2.99 |
| CGCCCGTTAT | 1.05 |
| CGCCCTAGGC | 1.03 |
| CGCCGAGCGC | 0.908 |
| CGCCGCACA | 3.61 |
| CGCCGCGGCA | 0.968 |
